# Results taken from the supplement of paper PMC4604168 (melanoma cell lines).
# The list shows a part of the results. Single values are uncertain, as repeats are few or missing.
# Tested on: A2058
# Assay: cell count relative to DMSO control; melanoma cells; higher = more viable cells
# Conditions: library dose: low library concentration; 72 h
# 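Further: cell number obtained by counting DAPI-stained nuclei in high-throughput microscope images with image analysis software, screen run in 1,536-well plates.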
row,SMILES,cell count [%]
1,"CC[C@]1(O)C[C@H]2CN(CCc3c([nH]c4ccccc34)[C@@](C(=O)OC)(c3cc4c(cc3OC)N(C=O)[C@H]3[C@@](O)(C(=O)OC)[C@H](OC(C)=O)[C@]5(CC)C=CCN6CC[C@]43[C@@H]65)C2)C1 [vincristine] + C[As](C)SC[C@H](NC(=O)CC[C@H](N)C(=O)O)C(=O)NCC(=O)O [Darinaparsin] (first compound 0.0001 µM, partner dose 0.4 µM)",21
2,"Cn1sc(=O)n(Cc2ccccc2)c1=O + C[C@]12O[C@H](C[C@]1(O)CO)n1c3ccccc3c3c4c(c5c6ccccc6n2c5c31)CNC4=O [Lestaurtinib] (first compound 0.4 µM, partner dose 0.004 µM)",109
3,"N#CC[C@H](C1CCCC1)n1cc(-c2ncnc3[nH]ccc23)cn1 [ruxolitinib] + Cn1cc(C2=C(c3cn(C4CCN(Cc5ccccn5)CC4)c4ccccc34)C(=O)NC2=O)c2ccccc21 [Enzastaurin] (first compound 1 µM, partner dose 0.8 µM)",93
4,"Cc1cn(-c2cc(NC(=O)c3ccc(C)c(Nc4nccc(-c5cccnc5)n4)c3)cc(C(F)(F)F)c2)cn1 [nilotinib] + N.N.[Cl][Pt][Cl] [cisplatin] (first compound 0.2 µM, partner dose 1.6 µM)",107
5,"CCCS(=O)(=O)Nc1ccc(F)c(C(=O)c2c[nH]c3ncc(Cl)cc23)c1F + C[As](C)SC[C@H](NC(=O)CC[C@H](N)C(=O)O)C(=O)NCC(=O)O [Darinaparsin] (first compound 0.08 µM, partner dose 0.4 µM)",117
